# Assay results taken from PubChem BioAssay AID1347428 (National Center for Advancing Translational Sciences (NCATS), 2020).
# Out of some 91,000 compounds screened, about 290 (0.32%) were called active. The inconclusive results got no clear call from the source; some entries with a clear call stand among them for comparison. Calls follow the shape of the dose curve; as a rule, active = well fitted inhibition curve with a large enough effect; inconclusive = small, poorly fitted or top-dose-only effect; inactive = no such curve, though single readings can be large or run the other way. Potencies beside an inconclusive call are fits to weak or partial responses and may not hold up.
# Biological target: Single-stranded DNA cytosine deaminase (Homo sapiens) (UniProt Q9GZX7)
# Sequence of UniProt Q9GZX7 (Q9GZX7 whole entry, looked up): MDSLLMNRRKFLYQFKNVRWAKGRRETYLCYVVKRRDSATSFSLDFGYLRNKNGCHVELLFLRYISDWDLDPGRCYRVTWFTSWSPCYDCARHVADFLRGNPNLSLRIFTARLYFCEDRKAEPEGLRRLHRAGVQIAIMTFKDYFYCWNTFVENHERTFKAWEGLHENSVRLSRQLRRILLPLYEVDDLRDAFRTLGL
# Test: Primary qHTS assay for inhibitors of Activation Induced Cytidine Deaminase (AID): AID signal; also: nearly all actives have a fitted effect of over 25% in size
# Conditions: AID deamination FRET fluorescence, UDG-coupled, 4 h; series mostly up to 115 µM
# Potency is read from the fitted curve at half-maximal effect; tags tell the direction and shape of the fitted curve.
row,Structure (SMILES),Potency
1,CN1CCN(C(=O)c2ccc3c(c2)N(Cc2ccc(C(F)(F)F)cc2)C(=O)c2ccccc2S3)CC1,"inconclusive: 50.1 µM [inhibitor, partial curve, poor fit]"
2,COc1ccc(Br)cc1Cn1nnc(C(=O)Nc2cccc(SC)c2)c1N,"inconclusive: 25.1 µM [inhibitor, full curve]"
3,O=C(CSc1nc2ccccc2n1Cc1cccc(F)c1)NCc1ccccc1,"inconclusive: 79.4 µM [inhibitor, single point]"
4,COc1cccc(OC)c1C(=O)Oc1ccc2c(c1)O/C(=C\c1ccc(C(C)(C)C)cc1)C2=O,inactive
5,CCOc1ccc(CN(CC)Cc2cc(=O)oc3ccc(OC)cc23)cc1,inactive
6,O=C(c1cc2c(Cl)nc3ccccc3c2s1)N1CCCCC1,"inconclusive: 3.16 µM [inhibitor, partial curve, poor fit]"
7,Cc1ccc(-c2cc(C(=O)O)c3ccccc3n2)cc1,inactive
8,Cc1ccc2c(c1)c1c(c(=O)n(-c3ccccc3)c(=O)n1Cc1ccccc1C)n2C,"inconclusive: 100 µM [inhibitor, single point]"
9,Cc1ccc(OCCSc2nnc(-c3cccs3)o2)cc1,"inconclusive: 14.1 µM [inhibitor, single point]"
10,O=C(Oc1ccc2c(c1)O/C(=C\c1cccs1)C2=O)c1ccco1,"inconclusive: 56.2 µM [inhibitor, partial curve, poor fit]"
11,Cc1ccc(-n2ncc(C(=O)NCc3ccc4c(c3)OCO4)c2C2CCN(C(=O)OC(C)(C)C)CC2)c(C)c1,"inconclusive: 39.8 µM [inhibitor, partial curve]"
12,CC(=O)c1ccc(N2CCN(C(=O)c3nn(Cc4ccccc4)c(=O)c4ccccc34)CC2)c(F)c1,inactive
13,CCCCC12CN3CC(C)(CN(C1)C3c1c[nH]c3ccccc13)C2=O (centres undefined),"inconclusive: 56.2 µM [inhibitor, single point]"
14,Cc1cc(C)cc(N2C(=O)CSC23C(=O)N(Cc2c(F)cccc2Cl)c2ccccc23)c1 (centres undefined),"inconclusive: 3.55 µM [inhibitor, full curve, poor fit]"
15,CC(CNC(=O)c1cnn(-c2ccc(F)cc2)c1-n1cccc1)c1ccccc1 (centres undefined),"inconclusive: 17.8 µM [inhibitor, partial curve, poor fit]"
16,COc1cccc(CSc2nc3n(n2)C(c2ccc(C(=O)O)cc2)C(C(=O)Nc2ccccc2)=C(C)N3)c1 (centres undefined),"inconclusive: 79.4 µM [inhibitor, single point]"
17,CC(COc1ccccc1)N(CCCl)Cc1ccccc1 (centres undefined),"inconclusive: 79.4 µM [inhibitor, partial curve, poor fit]"
18,CCc1nnc2c3ccccc3nc(Nc3cc(C)cc(C)c3)n12,inactive
19,CC1(C)CC(=O)C/C(=N/NC(=O)C2CCCCC2)C1,inactive
20,CN(C)CCCNC(=O)C1CCCN(c2ncnc3nc[nH]c23)C1 (centres undefined),inactive
21,Cc1nc(-c2cccc(F)c2)sc1CCNC(=O)C1CCCC1,inactive
22,COc1ccc(N2CCN(C(=O)C(CC(C)C)NS(=O)(=O)c3ccc4nc(C)sc4c3)CC2)cc1 (centres undefined),"inconclusive: 11.2 µM [inhibitor, full curve, poor fit]"

row,Structure (SMILES),Potency
1,COc1cc(C#N)ccc1OCCOc1ccccc1C(C)=O,inactive
2,O=C(NCC(c1ccc2c(c1)OCO2)N1CCN(c2ccccc2)CC1)c1ccc(F)c(F)c1 (centres undefined),"inconclusive: 17.8 µM [inhibitor, partial curve, poor fit]"
3,Cc1ccc(-n2nnnc2SCC(=O)NCCc2ccccc2)cc1C,"inconclusive: 89.1 µM [inhibitor, single point]"
4,COc1ccc(OCC(=O)NCc2ccc3c(c2)CCN3C(=O)c2cccc(C)c2)cc1,"inconclusive: 44.7 µM [inhibitor, single point]"
5,Cc1ccc(OCCn2c(C3CC(=O)N(Cc4ccc(F)cc4)C3)nc3ccccc32)c(C)c1 (centres undefined),active: 35.5 µM
6,Cc1ccc(C)c(CN2C(=O)c3ccccc3S(=O)c3ccc(C(=O)N4CCCCC4)cc32)c1 (centres undefined),"inconclusive: 50.1 µM [inhibitor, partial curve, poor fit]"
7,COc1cc(NC(=O)Cc2noc3ccccc23)cc(OC)c1OC,"inconclusive: 89.1 µM [inhibitor, single point]"
8,O=C(CN1C(=O)COc2ccc(S(=O)(=O)N3CCCCCC3)cc21)N1CCN(c2ccc(Cl)cc2)CC1,"inconclusive: 14.1 µM [inhibitor, partial curve, poor fit]"
9,CC(C)(C)CC(=O)NCCC1=CCCCC1,inactive
10,S=C(NCc1ccc(Cl)cc1)C1CCCCC1,inactive
11,Cc1ccc(C)c(N2CCN(C(=O)Cn3cnc4sc(C)c(S(=O)(=O)N5CCN(c6ncccn6)CC5)c4c3=O)CC2)c1,"inconclusive: 12.6 µM [inhibitor, full curve, poor fit]"
12,CCOC(=O)c1cc(C)nc2c1c(=O)n(Cc1nc(-c3ccc(C(C)C)cc3)oc1C)c(=O)n2C,inactive
13,CCOC(=O)Cn1c(C2CC(=O)N(c3ccc(C)cc3)C2)nc2ccccc21 (centres undefined),"inconclusive: 79.4 µM [inhibitor, single point]"
14,Cc1nc(CSc2ccc3c(c2)OCCCO3)oc1C,inactive
15,O=C(O)Cn1cccc(C(F)(F)F)c1=O,inactive
16,N#CC1=C(N)Oc2n[nH]c(-c3ccccc3)c2C12C(=O)N(Cc1cccc(F)c1)c1ccccc12 (centres undefined),inactive
17,CCc1ccc2oc(C(=O)NCC(c3ccc(Cl)cc3)N3CCOCC3)c(C)c2c1 (centres undefined),"inconclusive: 56.2 µM [inhibitor, partial curve, poor fit]"
18,CCN(CC)S(=O)(=O)c1nnc(NC(=O)COc2ccc(C)cc2)s1,"inconclusive: 100 µM [inhibitor, single point]"
19,COc1ccc(-n2c(-c3ccccc3F)nc3c(cnn3-c3ccc(C)cc3)c2=O)cc1,"inconclusive: 3.16 µM [inhibitor, partial curve, poor fit]"
20,CCCc1cnc2c(c1SCc1cccc(C)c1)c(=O)n(C)c(=O)n2C,"inconclusive: 39.8 µM [inhibitor, partial curve, poor fit]"
21,CCOc1ccc(CN2C(=O)c3ccccc3Sc3ccc(C(=O)NCc4ccc5c(c4)OCO5)cc32)cc1,"inconclusive: 3.16 µM [inhibitor, full curve, poor fit]"
22,CC1=CC(C)(C)N=C(Nc2nc(C)c3cc(C)cc(C)c3n2)N1,"inconclusive: 50.1 µM [inhibitor, partial curve, poor fit]"

row,Structure (SMILES),Potency
1,O=C(NC1CCCC1)c1ccc(CSc2nc3cccnc3n2Cc2cccc(F)c2)cc1,"inconclusive: 15.8 µM [inhibitor, full curve]"
2,O=C(CSc1nnc(-c2ccccc2Br)n1-c1ccccc1)c1ccc(F)cc1,"inconclusive: 28.2 µM [inhibitor, partial curve, poor fit]"
3,COc1ccc(-c2c(C#N)c(SCC(=O)Nc3ccc(C)c(C)c3)nc(C)c2C(=O)Nc2ccc(Cl)cc2)cc1,"inconclusive: 44.7 µM [inhibitor, partial curve, poor fit]"
4,CCCCSCCCNC(=O)C1CCN(Cc2nc(-c3ccc(CC)cc3)oc2C)CC1,"inconclusive: 17.8 µM [inhibitor, full curve, poor fit]"
5,Cc1cccc(N2CCN(C(=O)c3sc4nc5n(c(=O)c4c3C)CCC5)CC2C)c1 (centres undefined),"inconclusive: 50.1 µM [inhibitor, partial curve, poor fit]"
6,COc1cc2c(cc1OC)-c1cc(=Nc3c(C)cc(C)cc3C)n(C)c(=O)n1CC2,"inconclusive: 50.1 µM [inhibitor, partial curve]"
7,Cc1oc(-c2ccccc2Cl)nc1CS(=O)CC(=O)N1CCN(c2cccc(C(F)(F)F)c2)CC1 (centres undefined),"inconclusive: 39.8 µM [inhibitor, partial curve, poor fit]"
8,CN(C)c1ccc(C(=O)OC(C(=O)c2ccccc2)c2ccccc2)cc1 (centres undefined),inactive
9,CS(=O)(=O)c1ncc(Cl)c(C(=O)N(Cc2ccc(Cl)cc2)Cc2ccco2)n1,"inconclusive: 12.6 µM [inhibitor, full curve, poor fit]"
10,Cc1noc(-c2ccc(N3CCCCC3C)c([N+](=O)[O-])c2)n1 (centres undefined),"inconclusive: 44.7 µM [inhibitor, partial curve, poor fit]"
11,CCC1CCC2(CC1)NC(=O)N(Cc1coc(-c3cccs3)n1)C2=O (centres undefined),inactive
12,COc1cc(Cl)c(C)cc1NC(=O)c1c(C)oc2nc(C)nc(N3CCCC3)c12,"inconclusive: 56.2 µM [inhibitor, partial curve, poor fit]"
13,COc1ccc(C(CNC(=O)c2oc3ccccc3c2C)N2CCCCC2)cc1 (centres undefined),"inconclusive: 56.2 µM [inhibitor, partial curve, poor fit]"
14,O=c1cc(CN2CCN(c3cccc(Cl)c3)CC2)c2cc(Cl)ccc2o1,inactive
15,Cc1ccc(C(=O)N2CC(=O)Nc3ccc(Br)cc3C2c2ccc(F)cc2)cc1C (centres undefined),"inconclusive: 79.4 µM [inhibitor, partial curve]"
16,CC1CCN(S(=O)(=O)c2ccc3c(ccc(=O)n3CC(=O)NCc3ccccc3)c2)CC1,"inconclusive: 100 µM [inhibitor, single point]"
17,Cc1ccccc1OCC(=O)Nc1ccc2[nH]c(=O)sc2c1,inactive
18,N#Cc1ccccc1OCCN1CCc2ccccc2C1,inactive
19,CCOC(=O)c1ccc(OCC2c3cc(OC)c(OC)cc3CCN2C(=O)Cc2ccc(F)cc2)cc1 (centres undefined),"inconclusive: 2.82 µM [inhibitor, full curve, poor fit]"
20,COc1ccc(CN(CCC(c2ccc3c(c2)OCO3)c2ccccc2OC)C(C)=O)cc1 (centres undefined),"inconclusive: 44.7 µM [inhibitor, partial curve, poor fit]"
